Laboratory results reported in PubChem BioAssay AID463173 (ICCB-Longwood Screening Facility, Harvard Medical School, 2010).
Out of some 52,000 compounds screened, about 1,700 (3.3%) were called active. Rule as the data show it: active = survival mostly below about 52% (no sharp cut-off); inactive = mostly above about 56%. Some of the results follow.

Test system: Wild type
Assay: growth inhibition of S. aureus wild type versus tarO mutant, primary screen, teichoic acid synthesis inhibitors, RN4220, OD600 (AID 463173)
Settings: S. aureus RN4220 wild type/DeltatarO growth, OD600, 18 h, stronger effect = lower value, screened at 18.75 µg/mL (by protocol)

Structure (SMILES)	survival
CCOc1ccccc1C(=O)Nc1cc2c(cc1N1CCOCC1)n(C)c(=O)n2C	inactive: 81%
Cc1ccc(CCNC(=O)c2ccc3c(c2)c(C)c(C)n3Cc2ccccc2)cc1	inactive: 125%
COC(=O)c1sc2nc3ccccc3cc2c1N	inactive: 114%
CCc1nc2c(cnn2-c2ccc(Cl)cc2)c(=O)n1-c1ccc(OC)c(Cl)c1	inactive: 78%
Cc1ccc(OCC(=O)Nc2cc(-c3cccc(C)c3)nn2-c2ccccc2)cc1	inactive: 72%
COc1ccc(CCNC(=S)N(Cc2ccco2)Cc2cc3cc(OC)c(OC)cc3[nH]c2=O)cc1OC	inactive: 104%
CCOc1ccc(N2CC(c3nc4ccccc4n3Cc3cccc(C)c3)CC2=O)cc1 (stereo not drawn)	inactive: 46%
O=[N+]([O-])c1cc(-c2nc(-c3ccccc3)no2)ccc1NCCc1ccccc1	inactive: 85%
Cc1ccc2nc(N(Cc3cccnc3)C(=O)c3cccs3)sc2c1	inactive: 68%
CCCn1c(CCC(=O)Nc2cccc(CC)c2)nc2cccnc21	inactive: 78%
CC1CCCN(c2ccc(C(=O)NCc3ccccc3)cn2)C1 (stereo not drawn)	inactive: 103%
COc1ccc(-n2c(=O)c3sc4ccccc4c3n(CC(=O)NCc3ccccc3)c2=O)cc1	inactive: 87%
CCOc1ccc2[nH]c(=O)c(CN(CC3CCCO3)C(=O)N(CC)CC)cc2c1 (stereo not drawn)	inactive: 108%
Cc1ccccc1CNC(=O)c1ccc(CS(=O)Cc2ccc(Cl)cc2)o1 (stereo not drawn)	inactive: 81%
CCn1c(CC2C(=O)N(C)c3ccccc32)nc2ccccc2c1=O (stereo not drawn)	inactive: 83%
COc1ccc(Cl)cc1NC(=O)CSc1nc(-c2ccccc2)c2ccccc2n1	inactive: 80%
O=C(Nc1cccc(F)c1)[C@@H](c1ccccc1)N1Cc2ccccc2C1=O	inactive: 38%
Cc1nn(C(C)(C)C)c(OC(=O)c2cccc(F)c2)c1Sc1ccccc1	inactive: 62%
CC(C)CC(C(=O)NCCc1ccccc1)N1Cc2ccccc2C1=O (stereo not drawn)	inactive: 85%
CCc1ccc(NC(=O)CCCn2nc(C)c3c(C)n(-c4ccccc4)nc3c2=O)cc1	inactive: 88%

Structure (SMILES)	survival
CCCSc1nnc2n(-c3ccc(OC)cc3)c(=O)c3c4c(sc3n12)COC(C(C)C)C4 (stereo not drawn)	inactive: 80%
CCOc1ccc(CNC(=O)C2CCN(Cc3cc4ccccc4n3Cc3ccccc3C)CC2)cc1	inactive: 60%
CC(=O)Nc1ccc2nc(SCCOc3ccccc3)sc2c1	inactive: 87%
Cc1ccc(NC(=O)C(=O)NCCCN2CCOCC2)cc1C	inactive: 87%
Cc1cccc(NC(=O)C2(C)Cc3ccccc3C(=O)O2)c1 (stereo not drawn)	inactive: 107%
COc1cc(C)c2c(=O)c(-c3nc(C)cs3)coc2c1	inactive: 115%
Cc1c(CNC2CCCCCC2)c(C(=O)O)c(C)n1Cc1ccc(F)cc1	inactive: 98%
CCc1ccc(CN(Cc2ccco2)C(=O)COc2ccc(Cl)cc2C)cc1	inactive: 80%
Cc1cc(C)cc(NC(=O)CCS(=O)(=O)c2ccc3c(c2)oc(=O)n3C)c1	inactive: 72%
COC(=O)c1ccc2c(=O)n(CCCCCC(=O)NC(C)C)c(=O)[nH]c2c1	inactive: 73%
O=C(NCc1ccccc1)N1CCc2c(sc3c2CCCC3)C1c1ccccc1 (stereo not drawn)	inactive: 78%
Cc1cccc(-n2ncc3c(N4CCN(CCO)CC4)ncnc32)c1	inactive: 82%
Cc1ccc(Cl)cc1NC(=O)N1CCc2cc(S(=O)(=O)N3CCC(C)CC3)ccc21	inactive: 71%
CCc1ccc2[nH]c(=O)c(CNC3CCCC3)cc2c1	inactive: 107%
CCOc1ccc(C(=O)Nc2ccc3nc(SCC(=O)N(C)c4ccccc4)sc3c2)cc1	inactive: 78%
CCOC(=O)c1cc(-c2ccc(OC)cc2)n(CCC(=O)Nc2ccc(OC)cc2OC)c1C	inactive: 75%
COc1ccccc1CNC(=O)c1ccc(Nc2nc3ccccc3n3nnnc23)cc1	inactive: 66%
CCOc1ccc(/C=C/c2nc3ccccc3n2S(=O)(=O)c2cccc(Cl)c2)cc1	inactive: 57%
COc1cccc(-c2nc(SCC(=O)NC3CCCC3)c(-c3ccc(F)cc3)[nH]2)c1	inactive: 84%
CC1CCN(S(=O)(=O)c2ccc3nc(Nc4cccc(C(F)(F)F)c4)ccc3c2)CC1	inactive: 59%

Structure (SMILES)	survival
CC(C)c1ccc(/C=C(\C#N)c2nc(-c3cc4ccccc4oc3=O)cs2)cc1	inactive: 76%
COc1cc(Cl)c(C)cc1NS(=O)(=O)c1c(C)nc2sccn2c1=O	inactive: 86%
COC(=O)c1ccc(Nc2ncnc3c2cnn3-c2ccccc2)cc1	inactive: 90%
COc1ccc(C2=C(C)C(=O)N(Cc3ccc(C(=O)Nc4ccc(C)c(C)c4)cc3)S2(=O)=O)cc1	inactive: 112%
CCOc1ccccc1NC(=O)C1=C(C)Nc2ncnn2C1c1ccccn1 (stereo not drawn)	inactive: 19%
CCOC(=O)CCn1cnc2onc(-c3ccccc3Cl)c2c1=O	inactive: 119%
COc1cc(-c2nnc(SCC(=O)Oc3ccc(C)cc3C)o2)cc(OC)c1OC	inactive: 82%
Cc1ccc(CNC(=O)c2nc(S(=O)(=O)Cc3ccc(C)cc3)ncc2Cl)cc1	inactive: 77%
CCOC(=O)C1(C)C=C(Nc2cccc(C)c2)C(=O)N1c1ccccc1 (stereo not drawn)	inactive: 51%
COc1ccc(NC(=O)CN(c2ccccc2OC)S(C)(=O)=O)c(OC)c1	inactive: 70%
COC(=O)CCCCC1SCC2NC(=O)NC21 (stereo not drawn)	inactive: 90%
COc1cc(NC(=O)CCc2c(C)nc3c4c(C)cc(C)nc4nn3c2C)cc(OC)c1	inactive: 89%
Cc1cc(C)cc(NC(=O)CCCn2nc(C)c3c(C)n(-c4ccccc4)nc3c2=O)c1	inactive: 66%
O=C1c2[nH]nc(-c3ccccc3O)c2C(c2ccc(Cl)cc2)N1CCc1ccccc1 (stereo not drawn)	active: 4%
Cn1c(=O)cc(OCC(=O)N2CCN(c3ccc(F)cc3)CC2)c2ccccc21	inactive: 66%
CCOCN(C(=O)Cn1c(CC(C)C)nc2ccccc21)c1c(C)cccc1CC	active: 5%
CCOc1ccccc1Nc1ncnc2c1c(-c1ccccc1)cn2-c1ccc(OC)cc1	inactive: 119%
CC(C)c1ccc(NC(=O)C(NS(=O)(=O)c2ccc3c(c2)CCC(=O)N3)c2ccccc2)cc1 (stereo not drawn)	inactive: 68%
